These results are taken from article PMC12820563, “FoxP3 forms a head-to-head dimer in vivo and stabilizes its multimerization on adjacent microsatellites”.

Some of the results follow.

The target in this assay is T1, MBP-FoxP1dN (Mus musculus, UniProt P58462 326-579).
T1 sequence: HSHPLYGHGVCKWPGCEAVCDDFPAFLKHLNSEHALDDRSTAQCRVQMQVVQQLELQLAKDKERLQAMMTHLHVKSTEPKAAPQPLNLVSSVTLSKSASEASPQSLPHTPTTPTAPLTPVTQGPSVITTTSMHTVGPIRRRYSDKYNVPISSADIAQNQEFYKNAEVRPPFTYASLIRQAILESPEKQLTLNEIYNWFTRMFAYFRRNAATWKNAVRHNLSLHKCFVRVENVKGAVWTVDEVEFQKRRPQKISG
Nature of the assay: PD-seq (MBP pull-down with sequencing); 20 mM Tris-HCl pH 7.5, 100 mM NaCl, 1.5 mM MgCl2, 0.4 uM protein, 0.1 uM dsDNA library, 30 min, room temperature, amylose pull-down; high values mean tight binding. To be noted: protein: recombinant; tags: His6-MBP; chain copies: 2; dsDNA, one strand shown. The procedure, abridged: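 Amylose resin was used to capture complexes formed during 30 min at room temperature in Tris pH 7.5 buffer with NaCl and MgCl2 between 0.4 µM His6-MBP-tagged mouse FoxP3 or FoxP1 fragment lacking the N-terminus, expressed in E. coli, and 0.1 µM Klenow-filled double-stranded degenerate DNA library. After three washes, the DNA was released with proteinase K, barcoded by PCR and sequenced on Illumina. Binding is pooled-replicate reads-per-million enrichment, pull-down over input.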
On to “GATGATTGTTCTCCCAGCTGATGAATTTGTTCCATCGAGTAAACAAATTTTCCTAATCTTTCTGTTCAAGCGCCATCTAC”, for which the binding signal was 1.24 RPM ratio (pull-down/input).

As to “GATGATTGTTCTCCCAGCTGATGAATTAGCCCGTTCGAGTAAACAAATTTTCCTAATCTTTCTGTTCAAGCGCCATCTAC”, the binding signal is 0.839 RPM ratio (pull-down/input). To “GATGATTGTTCTCCCAGCTGATGAATTCAGTGCTTCGAGTAAACAAATTTTCCTAATCTTTCTGTTCAAGCGCCATCTAC” belongs 0.823 RPM ratio (pull-down/input); to “GATGATTGTTCTCCCAGCTGATGAATTCGGCGCTTCGAGTAAACAAATTTTCCTAATCTTTCTGTTCAAGCGCCATCTAC”, 0.87 RPM ratio (pull-down/input). To “GATGATTGTTCTCCCAGCTGATGAATTTCTCAAATCGAGTAAACAAATTTTCCTAATCTTTCTGTTCAAGCGCCATCTAC” belongs 1 RPM ratio (pull-down/input); to “GATGATTGTTCTCCCAGCTGATGAATTGTCGAGATCGAGTAAACAAATTTTCCTAATCTTTCTGTTCAAGCGCCATCTAC”, 0.918 RPM ratio (pull-down/input). To “GATGATTGTTCTCCCAGCTGATGAATTTCGTTGTTCGAGTAAACAAATTTTCCTAATCTTTCTGTTCAAGCGCCATCTAC” belongs 1.23 RPM ratio (pull-down/input); to “GATGATTGTTCTCCCAGCTGATGAATTTTATCTGTCGAGTAAACAAATTTTCCTAATCTTTCTGTTCAAGCGCCATCTAC”, 0.918 RPM ratio (pull-down/input). “GATGATTGTTCTCCCAGCTGATGAATTTGGTCGTTCGAGTAAACAAATTTTCCTAATCTTTCTGTTCAAGCGCCATCTAC”: the binding signal was 0.921 RPM ratio (pull-down/input). In the case of “GATGATTGTTCTCCCAGCTGATGAATTTTCTGGCTCGAGTAAACAAATTTTCCTAATCTTTCTGTTCAAGCGCCATCTAC”, the binding signal is 0.777 RPM ratio (pull-down/input). As for “GATGATTGTTCTCCCAGCTGATGAATTCAGCCCATCGAGTAAACAAATTTTCCTAATCTTTCTGTTCAAGCGCCATCTAC”, the binding signal was 0.816 RPM ratio (pull-down/input). Turning to “GATGATTGTTCTCCCAGCTGATGAATTTATGCGATCGAGTAAACAAATTTTCCTAATCTTTCTGTTCAAGCGCCATCTAC”, the binding signal is 1.16 RPM ratio (pull-down/input). Under “GATGATTGTTCTCCCAGCTGATGAATTTGTAGAGTCGAGTAAACAAATTTTCCTAATCTTTCTGTTCAAGCGCCATCTAC” stands 0.866 RPM ratio (pull-down/input). Consider “GATGATTGTTCTCCCAGCTGATGAATTTAGATGGTCGAGTAAACAAATTTTCCTAATCTTTCTGTTCAAGCGCCATCTAC”, for which the binding signal was 1.02 RPM ratio (pull-down/input). To “GATGATTGTTCTCCCAGCTGATGAATTTCCGGCATCGAGTAAACAAATTTTCCTAATCTTTCTGTTCAAGCGCCATCTAC” belongs 0.948 RPM ratio (pull-down/input); to “GATGATTGTTCTCCCAGCTGATGAATTATATGTCTCGAGTAAACAAATTTTCCTAATCTTTCTGTTCAAGCGCCATCTAC”, 0.958 RPM ratio (pull-down/input).

Turning to “GATGATTGTTCTCCCAGCTGATGAATTTAGCCGCTCGAGTAAACAAATTTTCCTAATCTTTCTGTTCAAGCGCCATCTAC”, the binding signal was 0.835 RPM ratio (pull-down/input). For “GATGATTGTTCTCCCAGCTGATGAATTGGCCCAATCGAGTAAACAAATTTTCCTAATCTTTCTGTTCAAGCGCCATCTAC”, the binding signal is 0.93 RPM ratio (pull-down/input). Turning to “GATGATTGTTCTCCCAGCTGATGAATTGGACTAGTCGAGTAAACAAATTTTCCTAATCTTTCTGTTCAAGCGCCATCTAC”, the binding signal is 0.735 RPM ratio (pull-down/input). Turning to “GATGATTGTTCTCCCAGCTGATGAATTGAGACATTCGAGTAAACAAATTTTCCTAATCTTTCTGTTCAAGCGCCATCTAC”, the binding signal was 0.975 RPM ratio (pull-down/input). For “GATGATTGTTCTCCCAGCTGATGAATTCCTCGTGTCGAGTAAACAAATTTTCCTAATCTTTCTGTTCAAGCGCCATCTAC”, the binding signal was 0.828 RPM ratio (pull-down/input). To “GATGATTGTTCTCCCAGCTGATGAATTATGCAGCTCGAGTAAACAAATTTTCCTAATCTTTCTGTTCAAGCGCCATCTAC” belongs 0.925 RPM ratio (pull-down/input). Turning to “GATGATTGTTCTCCCAGCTGATGAATTAGCGTTCTCGAGTAAACAAATTTTCCTAATCTTTCTGTTCAAGCGCCATCTAC”, the binding signal is 0.876 RPM ratio (pull-down/input). To “GATGATTGTTCTCCCAGCTGATGAATTTTATCAATCGAGTAAACAAATTTTCCTAATCTTTCTGTTCAAGCGCCATCTAC” belongs 1.02 RPM ratio (pull-down/input); to “GATGATTGTTCTCCCAGCTGATGAATTTCTTTACTCGAGTAAACAAATTTTCCTAATCTTTCTGTTCAAGCGCCATCTAC”, 1.04 RPM ratio (pull-down/input). In the case of “GATGATTGTTCTCCCAGCTGATGAATTCATATATTCGAGTAAACAAATTTTCCTAATCTTTCTGTTCAAGCGCCATCTAC”, the binding signal was 1.06 RPM ratio (pull-down/input). “GATGATTGTTCTCCCAGCTGATGAATTAACGACCTCGAGTAAACAAATTTTCCTAATCTTTCTGTTCAAGCGCCATCTAC”: the binding signal was 0.827 RPM ratio (pull-down/input). Take “GATGATTGTTCTCCCAGCTGATGAATTCCTCGACTCGAGTAAACAAATTTTCCTAATCTTTCTGTTCAAGCGCCATCTAC”: the binding signal was 0.814 RPM ratio (pull-down/input).

Take “GATGATTGTTCTCCCAGCTGATGAATTTCTAAACTCGAGTAAACAAATTTTCCTAATCTTTCTGTTCAAGCGCCATCTAC”: the binding signal is 0.947 RPM ratio (pull-down/input).

In the case of “GATGATTGTTCTCCCAGCTGATGAATTCCATGAGTCGAGTAAACAAATTTTCCTAATCTTTCTGTTCAAGCGCCATCTAC”, the binding signal was 0.847 RPM ratio (pull-down/input). To “GATGATTGTTCTCCCAGCTGATGAATTTCCTTACTCGAGTAAACAAATTTTCCTAATCTTTCTGTTCAAGCGCCATCTAC” belongs 0.874 RPM ratio (pull-down/input). Under “GATGATTGTTCTCCCAGCTGATGAATTACTCGGATCGAGTAAACAAATTTTCCTAATCTTTCTGTTCAAGCGCCATCTAC” stands 0.978 RPM ratio (pull-down/input); under “GATGATTGTTCTCCCAGCTGATGAATTTGACATATCGAGTAAACAAATTTTCCTAATCTTTCTGTTCAAGCGCCATCTAC”, 0.899 RPM ratio (pull-down/input); under “GATGATTGTTCTCCCAGCTGATGAATTCCGGTGGTCGAGTAAACAAATTTTCCTAATCTTTCTGTTCAAGCGCCATCTAC”, 0.767 RPM ratio (pull-down/input). Under “GATGATTGTTCTCCCAGCTGATGAATTGGTATAATCGAGTAAACAAATTTTCCTAATCTTTCTGTTCAAGCGCCATCTAC” stands 1.31 RPM ratio (pull-down/input); under “GATGATTGTTCTCCCAGCTGATGAATTCTGACCATCGAGTAAACAAATTTTCCTAATCTTTCTGTTCAAGCGCCATCTAC”, 0.832 RPM ratio (pull-down/input); under “GATGATTGTTCTCCCAGCTGATGAATTGTTTTTGTCGAGTAAACAAATTTTCCTAATCTTTCTGTTCAAGCGCCATCTAC”, 2.31 RPM ratio (pull-down/input). Consider “GATGATTGTTCTCCCAGCTGATGAATTCTAGCCCTCGAGTAAACAAATTTTCCTAATCTTTCTGTTCAAGCGCCATCTAC”, for which the binding signal was 0.767 RPM ratio (pull-down/input). Under “GATGATTGTTCTCCCAGCTGATGAATTGAGACACTCGAGTAAACAAATTTTCCTAATCTTTCTGTTCAAGCGCCATCTAC” stands 0.946 RPM ratio (pull-down/input); under “GATGATTGTTCTCCCAGCTGATGAATTCAGCCACTCGAGTAAACAAATTTTCCTAATCTTTCTGTTCAAGCGCCATCTAC”, 0.977 RPM ratio (pull-down/input).
